PubChem BioAssay AID1346428 (National Center for Advancing Translational Sciences (NCATS), 2018)
Out of some 48,000 compounds screened, about 1,200 (2.5%) were called active. Not shown: some 2% with an inconclusive outcome.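 How the source made its calls: active means activation of at least 60% and not above a set upper limit (about 1 call in 100 departs from these limits); inconclusive means activation of 40% to 60%, or above that upper limit; inactive means activation under 40%.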 The list shows a part of the results.

Biological target: Probable G-protein coupled receptor 32 (Homo sapiens) (UniProt O75388)
UniProt O75388, sequence (O75388 whole entry, looked up): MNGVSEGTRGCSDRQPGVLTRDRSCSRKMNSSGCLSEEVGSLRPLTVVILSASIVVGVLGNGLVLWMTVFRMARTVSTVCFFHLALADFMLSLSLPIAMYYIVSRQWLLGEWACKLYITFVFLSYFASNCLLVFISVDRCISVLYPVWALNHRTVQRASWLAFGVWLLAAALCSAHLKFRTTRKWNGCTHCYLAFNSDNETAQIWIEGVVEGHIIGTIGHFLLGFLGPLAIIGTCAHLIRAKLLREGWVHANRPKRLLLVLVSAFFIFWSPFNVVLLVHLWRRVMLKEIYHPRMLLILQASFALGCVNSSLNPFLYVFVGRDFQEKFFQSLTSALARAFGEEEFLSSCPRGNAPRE
Experiment: qHTS for Agonists of Human Resolvin D1 Receptor DRV1; further: 0% is about no effect
Details: CHO-K1 GPR32 beta-arrestin PathHunter luminescence, 90 min; at 76.9 µM; stronger effect = higher value; zero percent set by DMSO-only wells
Procedure, shortened: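 Agonism was scored as beta-arrestin recruitment to ProLink-fused GPR32 in stably transfected CHO-K1 cells, giving a chemiluminescent beta-Gal signal; compounds were incubated 90 min at 37 °C.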

activation, inactive:
O=C(Cc1ccc(-c2ccccc2)cc1)NCCS(=O)(=O)N1CCN(c2ccccc2)CC1 -11.7%, O=C(CSc1nc(-c2ccc(F)cc2)[nH]c1-c1ccc(F)cc1)Nc1ccc2c(c1)OCO2 9.38%, COc1ccc(-c2cc(C(F)(F)F)nc(SCC(=O)NCC(C)C)n2)cc1OC -18.3%, Cc1ccc(CNC(=O)c2ccc(CS(=O)Cc3cccc(Cl)c3)o2)cc1 (stereo not given) -10.6%, Cc1ccn2c(=O)cc(COc3cccc(NC(=O)Nc4cccc(Cl)c4C)c3)nc2c1 -0.532%, COc1ccccc1NC(=O)C1=C(C)Nc2nc3ccccc3n2C1c1cccc(OC)c1OC (stereo not given) -4.31%, COc1ccc(NC(C)=O)cc1NC(=O)CN1CCN(c2ccc(F)cc2)CC1 -7.26%, O=S(=O)(c1cccc2ccccc12)N1CCN(c2ccc(Cl)c(Cl)c2)CC1 0.432%, CCOc1cc(C(=O)NCC(c2ccc(N(C)C)cc2)N2CCOCC2)cc(OCC)c1OCC (stereo not given) 2.17%, O=C(Cn1cc(S(=O)(=O)c2ccccc2)c(=O)c2cc(Cl)ccc21)Nc1ccc2c(c1)OCO2 -7.11%, Cc1cc(Nc2cccc(C(F)(F)F)c2)nc2ccc(NC(=O)c3cccc(Cl)c3)cc12 -10.1%, O=C(NCCCN1CCOCC1)c1ccc2c(c1)N(Cc1cccc(Cl)c1)C(=O)c1ccccc1S2 -13.1%, CCOc1ccc(CNCc2c(C(=O)O)c(C)n(Cc3c(F)cccc3Cl)c2C)cc1OC 8.41%, CC1CCCN(S(=O)(=O)c2ccc3c(c2)c(=O)nc2ccccn23)C1 (stereo not given) -17.1%, CCCCN(CCCNC(=O)c1cc(Nc2ccc(OC)c(OC)c2)nc2ccccc12)c1ccccc1 10%, Cc1ccc(-c2cn3c(n2)sc2cc(C(=O)NCCCc4ccccc4)ccc23)c(C)c1 -30.9%, CC(=O)O[C@@]12CO[C@@H]1C[C@H](O)[C@@]1(C)C(=O)[C@H](O)C3=C(C)[C@@H](OC(=O)[C@H](O)[C@@H](NC(=O)OC(C)(C)C)c4ccccc4)C[C@@](O)([C@@H](OC(=O)c4ccccc4)[C@H]21)C3(C)C 19.9%, CC(C)c1ccc(S(=O)(=O)N2CCC(N3CCN(Cc4ccccc4)C(=O)C3=O)CC2)cc1 5.63%, CCCCN(C)CCNC(=O)CN1C(=O)CSc2ccc(S(=O)(=O)N3CCOCC3)cc21 -4.98%, COc1ccc(C2=C(Nc3ccc(C)cc3C)c3ccccc3C2=O)cc1 -20.4%, CCc1nn2c(=O)c(S(=O)(=O)Nc3ccc(Cl)cc3)c(C)nc2s1 -8.48%, Cc1ccccc1Nc1c(-c2cccnc2)nc2ccc(Cl)cn12 -25.6%, CC(CCc1ccccc1)NC(=O)Cn1c(=O)nc(-c2ccccc2)c2ccccc21 (stereo not given) 3.05%, CCOC(=O)c1cnc2c(C)c(Cl)ccc2c1Nc1ccc(N2CCOCC2)cc1 -28%, Cc1ccc2oc(=O)n(CCCOc3ccccc3Cl)c2c1 -30.9%, Cc1cc(C)c(S(=O)(=O)NCC(c2ccc(N(C)C)cc2)N2CCOCC2)c(C)c1 (stereo not given) -32.5%, COc1ccccc1-c1noc(-c2ccc(NCC3CCCO3)c([N+](=O)[O-])c2)n1 (stereo not given) -13.2%, CCc1cccc(NC(=O)CN(C)S(=O)(=O)c2ccc3c(c2)CCCN3C(C)=O)c1 24.9%, CCc1ccc(NC(=O)CN2C(=O)C3(SCC(=O)N3c3ccc(F)c(F)c3)c3ccccc32)cc1 (stereo not given) 5.99%, Cc1cccc(C2CC(=O)Nc3cc4c(cc32)OCO4)c1 (stereo not given) 4.27%, CCc1nc2nc(C)cc(Nc3cccc(C)c3C)n2n1 10.4%, CC(C)c1ccc(OCC(=O)N(Cc2cccs2)C2CCS(=O)(=O)C2)cc1 (stereo not given) -6.84%, COc1ccc(CNC(=O)CCc2c(C)c3cc4c(C)c(C)oc4cc3oc2=O)cc1OC -11.2%, Cc1cc(C)n(C(C)CC(=O)Nc2ccc(C)c(N(C)C)c2)n1 (stereo not given) -11.8%, C=C(C)CSc1nc(-c2ccccc2)cc(-c2ccc(OC)cc2)c1C#N -19.7%, COC(=O)c1ccc(NC(=O)CN2C(=O)CC(c3ccccc3)Sc3ccccc32)cc1 (stereo not given) -5.52%, O=C(NC1CCCC1)c1ccc2c(=O)n(Cc3ccccc3)c(SCc3cccc(F)c3)nc2c1 -5.34%, CCN(CC)c1ccc(NC(=O)CCCN2C(=O)C(c3ccccc3)Oc3cccnc32)c(C)c1 (stereo not given) 37.8%, CCOc1cc(Cl)c(S(=O)(=O)n2ccnc2)cc1Cl 14.1%, Cc1nnc(N2CCC(C(=O)NCCC(C)C)CC2)c2nn(-c3ccc(Cl)cc3)c(C)c12 -7.66%
